Among the data in ChEMBL document CHEMBL1157539, “Thousands of chemical starting points for antimalarial lead identification” (Nature, 2010) are IFI values, retold here.

The structures appear in SMILES notation. Over roughly 13,000 compounds, “IFI” has its median near 4; the highest 2% begin near 17. The list shows a part of the results.

This assay in a line: GSK_TCMDC: Inhibition Frequency Index (IFI). The number of non-kinase HTS assays where a compound showed > 50 % inhibition, expressed as a percentage of the number of such assays in which the compound was tested (-0 is zero). Type of assay: functional.
Consider `FC(F)(F)c1ccc2[nH]c(-c3ccc(-c4cccc(CNCCN5CCNCC5)c4)s3)nc2c1`, for which the IFI is 8.82%. The same measure for `CC(C)N(Cc1ccc(-c2ccc(C(F)(F)F)cc2)cc1)C(=O)Cn1c(CCc2cccc(F)c2F)cc(=O)c2ccc(CCCN3CCCCC3)cc21`: 12.7%; for `CCCCCC(C)(C)NC[C@@H](O)[C@H](Cc1ccccc1)NC(=O)c1cc(NCC)cc(N2CCCC2=O)c1`: 0.75%; for `Cc1ccc(NC(=O)c2ccc3ncccc3c2)cc1OC1CCN(Cc2ccsc2)C1` (stereo unspecified): 3.28%. Then `CC1(C)NC(N)=NC(=N)N1OCc1ccc2ccccc2c1CON1C(=N)N=C(N)NC1(C)C`, with 0.7%. Then `CC(C)(C)c1ccc(CNC(=O)COc2ccc(-c3nnc(-c4cccc([N+](=O)[O-])c4)o3)cc2[N+](=O)[O-])cc1`, with 1.47%. Consider `O=C(/C=C/c1ccc(Cl)c(Cl)c1)NCCCCCN1CCC(NC(=O)Nc2cc(F)ccc2F)CC1`, for which the IFI worked out at 9.27%. The same measure for `CCNc1cc(C(=O)N[C@@H](Cc2ccccc2)[C@H](O)CNC2(CC)CC2)cc(N2CCCCS2(=O)=O)c1`: 2.92%.

Compound `CS(=O)(=O)NCCCNCc1ccc(-c2ccc(-c3nc4cc(F)ccc4[nH]3)cc2)cc1` gave an IFI of 5.94%. Then `Cc1cc(NC(=O)Nc2ccc3ccn(C)c3c2)c2ccccc2n1`, with 4.38%. Then `COc1ccc2nccc([C@@H](O)CN3CCC(NCc4ccc5c(c4)NC(=O)CS5)CC3)c2c1`, with 1.45%.

With `CN1CCN(CCCN(Cc2cccc(-c3ccc(CNCCc4ccccc4)cc3)c2)C(=O)c2cccs2)CC1`, the IFI is 11.3%. Then `COc1ccc(-c2ccc(NC(=O)c3cccc(F)c3)cc2)cc1CNC(C)C`, with 3.96%.

Take `Cc1cc(N[C@@H](CC(C)C)C(=O)NCc2cccc(F)c2)nc(NCCc2ccc(F)cc2)n1`: the IFI is 4.65%. Then `O=C(c1ccccc1)N1CCC(CN2CCOC(c3ccccc3)(c3ccccc3)C2)CC1`, with 2.33%; and `Fc1ccc(Nc2ccnc3cc(-c4ccc(CNCCN5CCOCC5)o4)ccc23)c(Cl)c1`, with 7.86%. The same measure for `CC(=O)Nc1ccc(C(=O)Nc2ccc(-c3cccc(-c4nc5cc(C(F)(F)F)ccc5[nH]4)c3)cc2)cn1`: 4.67%; for `O=C(/C=C/c1ccc(Cl)c(Cl)c1)NCCCCCN1CCC(CCNC(=O)c2snnc2-c2ccccc2)CC1`: 6.29%. The same measure for `Cc1cccc2nc(-c3cccc(-c4ccc(NC(=O)NC(C)C)cc4)c3)[nH]c12`: 4.08%. `CS(=O)(=O)N(c1ccc(F)cc1)c1cc(C(=O)N[C@@H](Cc2ccccc2)[C@H](O)CNCc2cccc(C(F)(F)F)c2)cc(N2CCCC2=O)c1`: the IFI amounted to 3.68%. Consider `CCCCCCNC(=O)C1Cc2c([nH]c3ccc(F)cc23)C2(CCN(Cc3ccccc3)CC2)N1` (stereo unspecified), for which the IFI was determined as 5.8%.

For the compound `FC(F)(F)c1ccc2[nH]c(-c3ccc(-c4cccc(CN5CCC(CCN6CCCCC6)CC5)c4)cc3)nc2c1`, the IFI was 11.1%. With `Cc1ccc2nc(Cl)c3cc(C(=O)NCCCN4CCCC4)sc3c2c1`, the IFI is 6.12%. Then `Cc1cc(C(=O)CN2C(=O)NC3(CCCc4ccccc43)C2=O)c(C)n1Cc1ccc(F)cc1` (stereo unspecified), with 5.45%; and `Cc1cc(C(=O)NC2CCN(Cc3ccccc3)CC2)ccc1-c1nc2cc(Cl)c(Cl)cc2[nH]1`, with 0.74%. The same measure for `COc1cc2nc(N3CCC(CNC(=O)c4ccc(-c5ccc(C(=O)N(C)C)cc5C)cc4)CC3)nc(N3CCN(C)CC3)c2cc1OC`: 3.57%. `O=S(=O)(NCCN1CCCC1)c1ccc(-c2ccc(CNCc3ccsc3)cc2)cc1` displayed an IFI of 8.26%. Then `CCN(CC)CCN(Cc1ccc(-c2ccc(Cl)cc2)cc1)C(=O)Cn1cc(CN(C)C)c(=O)nc1SCc1ccc(F)cc1`, with 12.6%; and `CN(C)CC(O)C(c1ccccc1)c1ccc(Cl)cc1` (stereo unspecified), with 0.7%. Then `CC(C)n1ncc2c(C(=O)N3CCCC4CCCCC43)cc(C3CC3)nc21` (stereo unspecified), with 7.02%; and `N#Cc1ccc(N/C(=N\c2ccc(-c3ccccc3)cc2)NC2CCCc3ccccc32)c(O)c1` (stereo unspecified), with 1.47%. The same measure for `c1cc2[nH]c(CCCc3nc4cc(C5=N[C@H]6CCCC[C@H]6N5)ccc4[nH]3)nc2cc1C1=N[C@@H]2CCCC[C@@H]2N1`: -0%. Regarding `CCc1cn(CCOC)c2ccc(C(=O)N[C@@H](Cc3ccccc3)[C@H](O)CNC(C)(C)CCCC(C)C)cc12`, the IFI worked out at 5.07%. The same measure for `CC(CCNc1c2ccccc2nc2ccccc12)N1CCN(C)CC1` (stereo unspecified): 2.22%; for `CCN(CCCN1CCCCC1)c1cc(C)nc(Nc2cc(Cl)cc(Cl)c2)n1`: 6.33%; for `CCOc1ccccc1CNc1nccc(NCc2ccccc2OC)n1`: 15.4%. `COc1ccc2nccc(NC(=O)N3CCC(NCc4cc5c(F)ccc(F)c5[nH]4)CC3)c2n1` registered an IFI of 2.24%. The same measure for `CC(C)(Oc1ccc(Cl)cc1)C(=O)NCCC1CCN(CCCCCNC(=O)/C=C/c2ccc(Cl)c(Cl)c2)CC1`: 12.3%; for `Cc1onc(-c2ccccc2)c1-c1nc(NCc2ccccc2Cl)no1`: 3.13%.

Take `COc1cc2nc(NCCc3ccccc3)nc(NCc3ccc(C#N)cc3)c2cc1OC`: the IFI turned out to be 11.2%. Then `c1ccc(-c2ccc(CNCCCNc3nc4ccccc4[nH]3)cc2)cc1`, with 9.46%; and `Cc1c(C)c2c(c(C)c1O)CC[C@](C)(C(=O)N1CCC(CCN3CCC(c4c[nH]c5ccccc45)CC3)CC1)O2`, with 5.88%. `Oc1ccc2[nH]cc(C3CCN(CCCNCc4ccc(-c5ccccc5)cc4)CC3)c2c1` returned an IFI of 4.14%. The same measure for `COc1cccc(Nc2nc(N)c3ccccc3n2)c1`: 3.05%; for `OC(CNCc1ccccc1Oc1ccccc1)c1cccc(C(F)(F)F)c1` (stereo unspecified): 4.1%; for `COc1ccc2nccc(NCC3(O)CCC(NCc4ccc5c(n4)NC(=O)CS5)CC3)c2n1` (stereo unspecified): 2.29%. Then `CC(C)c1ccc(NC(=O)c2ccc(CN3CCCN(Cc4cccc(O)c4)CC3)cc2)cc1`, with 13.6%; and `Nc1ncc(-c2ccc(Br)cc2)c(N)n1`, with -0%; and `CCCN(Cc1nnc(-c2ccco2)o1)C(=O)C1CCCN(C(=O)c2ccc(Cl)cc2)C1` (stereo unspecified), with 2.25%.

Take `Cc1c(C(=O)C2CC2CN2CCC(N3CCCCC3)CC2)sc2ccccc12` (stereo unspecified): the IFI is 7.84%. The same measure for `N#Cc1ccc2c(c1)CCN(CCC1CCC(NC(=O)c3ccc(-c4ccccn4)s3)CC1)CC2` (stereo unspecified): 2.67%. The same measure for `Oc1ccc(Cl)c2c1C(c1ccccc1)=NCC2`: 0.75%. Then `O=C(CCNc1ccnc(NCC2CCCCC2)n1)Nc1ccccc1`, with 8.89%; and `COc1ccc(CCn2c(=N)c(C(=O)NCc3ccc(C)cc3)cc3c(=O)n4ccccc4nc32)cc1`, with 0.87%. As to `FC(F)(F)c1ccc2[nH]c(-c3ccc(-c4cccc(CNCc5ccccc5)c4)s3)nc2c1`, the IFI came to 11.4%. Take `CC(Cc1ccc(NC(=O)c2ccc(CC(C)NCc3ccc(Cl)cc3)cc2)cc1)NCCc1cccc(Cl)c1` (stereo unspecified): the IFI amounted to 7.8%. On to `CC(C)(C)SC1SC(SC(C)(C)C)C(OC(=O)c2ccccc2)C(OC(=O)c2ccccc2)C1OC(=O)c1ccccc1` (stereo unspecified), for which the IFI was -0%. The same measure for `O=C(NCCCCCN1CCC(c2c[nH]c3ccccc23)CC1)Nc1ccc(Cl)cc1Cl`: 7.14%; for `O=C(/C=C/c1ccc(Cl)c(Cl)c1)N1CCCC(CCCN2CCC(c3c[nH]c4ccccc34)CC2)C1` (stereo unspecified): 8.76%; for `COc1c(C2CCN(CCCCNC(=O)c3ccc(NC(=O)c4ccc(C#N)cc4)cc3)CC2)ccc2c1CCCC2`: 9.26%.

For `CC1(C)S(=O)(=O)CC(O)CS1(=O)=O`, the IFI was -0%.

Compound `N=C(N)c1ccc(C(=O)Nc2cccc(C(=N)N)c2)cc1` came in with an IFI of -0%. The same measure for `Cc1cc(Oc2cc(NC(=O)c3sc4ncn(Cc5ccccc5F)c(=O)c4c3C)cc([N+](=O)[O-])c2)ccc1Cl`: 0.88%. Then `N#Cc1cc(C(=O)c2cc(Cl)ccc2O)cn(-c2cccc(C(F)(F)F)c2)c1=O`, with 7.44%.

`OCC1CCN(Cc2ccc(-c3ccc(-c4nc5cc(F)ccc5[nH]4)s3)cc2)CC1` yielded an IFI of 2.97%. As to `CCC(C)NS(=O)(=O)c1ccc2nc(Nc3ccc(C)c(Cl)c3)n([C@H](C)C(C)(C)C)c2c1` (stereo partly specified), the IFI came out at 7.41%. Then `CCc1ccc(C2CCN(CCCCNC(=O)c3ccc(NC(=O)c4ccc(Cl)cc4)cc3)CC2)c(OC)c1`, with 7.89%. The same measure for `COc1cccc2c(NN=Cc3ccc(Cl)cc3)ccnc12`: 2.96%; for `COc1ccccc1CCNc1nc(C)cc(N[C@@H](Cc2ccccc2)C(=O)NCCc2ccccc2)n1`: 11.9%; for `Nc1nc(N)c2c(ccc3c2ncn3Cc2ccccc2)n1`: 6.43%.

Consider `NC(=O)c1ccsc1NC(=O)CNC(c1ccccc1)c1ccccc1`, for which the IFI is 2%.

In turn, `CCNc1cc(C(=O)N[C@@H](Cc2ccccc2)[C@H](O)CN[C@@H](C)c2cccc(OC)c2)cc(N2CCCC2=O)c1` showed an IFI of 0.72%. Compound `Cn1cc(C2CCN(CCCCNC(=O)c3ccc(-c4ccc(C(F)(F)F)cc4)c(CO)c3)CC2)c2ccccc21` had an IFI of 3.6%. The same measure for `CC(C)(Oc1c(C2CCN(CCCCNC(=O)c3ccc(-c4ccc(C#N)cc4)cc3)CC2)ccc2c1CCCC2)C(N)=O`: 6.82%; for `O=C(Nc1cccc(CN2CCCN(Cc3ccc(O)cc3)CC2)c1)c1cc2ccccc2s1`: 4.48%. The same measure for `CN=C(S)NN=C(C)c1ccccn1`: 5.84%; for `CCc1c[nH]c2c(N(c3ccccc3)S(C)(=O)=O)cc(C(=O)N[C@@H](Cc3ccccc3)[C@H](O)CNC(C)(C)CCCC(C)C)cc12`: 14.5%; for `FC(F)(F)c1ccc2[nH]c(-c3ccc(-c4cccc(CNCC5CCCO5)c4)cc3)nc2c1` (stereo unspecified): 6.8%. Then `Fc1ccc2[nH]c(-c3ccc(-c4ccc(CNCc5cnn(-c6ccccc6)n5)cc4)cc3)nc2c1`, with 14.5%; and `O=C(Nc1ccc(N2CCNCC2)cc1)c1ccn2ncc(-c3cccc(Cl)c3)c2n1`, with 11.1%; and `CC(=O)Nc1nc(C(=O)Nc2cccc(-c3cccc(-c4nc5cc(F)ccc5[nH]4)c3)c2)cs1`, with 2.61%. Compound `N#Cc1ccc(-c2ccc(C(=O)NC3CCN(CCN4CCC(c5cn(CCOC6CCCCO6)c6ccccc56)CC4)CC3)cc2)cc1` (stereo unspecified) had an IFI of 8.11%. In turn, `c1ccc(Oc2ccc(Nc3ccnc4ccc(-c5ccccn5)cc34)cc2)cc1` registered an IFI of 1.61%. The same measure for `CC(CCON1C(N)=NC(N)=NC1(C)C)c1ccc(Cl)cc1` (stereo unspecified): 3%; for `CN(C)c1ccc2c(c1)Sc1cc(N(C)C)ccc1N2C(=O)CCCC(=O)O`: 7.14%; for `CN(C)CCCOc1ccccc1CN1CC[C@H](NC(=O)c2ccc(Cl)c(Cl)c2)C1`: 8.82%.
